These results are taken from PubChem BioAssay AID1963576 (National Center for Advancing Translational Sciences (NCATS), 2024).

Molecules are shown by their SMILES. Hit rate of the full screen: of about 46,000 compounds, about 60 (0.1%) were called active. Another 3% or so got no clear call; they are omitted. The call rests on the fitted dose curve; in most records, active means well fitted inhibition curve with a large enough effect; inconclusive means small, poorly fitted or top-dose-only effect; inactive means no such curve, though single readings can be large or run the other way. The list shows a part of the results.

This assay can be described thus: Primary qHTS assay for Inhibitors of ovarian cancer metastasis using an organotypic tumor microenvironment (TME) model. Further: nearly all actives have a fitted effect of over 65% in size.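 On activity change, negative = inhibition: plate controls were DMSO wells for no effect and tomatine positive control wells for full effect.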 To be noted: SKOV3ip1-GFP adhesion/invasion on 3D omental model, fluorescence; series mostly up to 45.8 µM; activity change, negative = inhibition: at the top concentration. In outline: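 Adhesion/invasion was scored as fixed GFP-labeled SKOV3ip1 cell counts (488/509 nm), normalized to DMSO and tomatine controls. Cancer cells in serum-free medium, with four compound doses (0.36-46 umol/L), sat 2 hr at RT then 16 hr at 37 C on a 48 hr fibroblast/mesothelial/ECM culture.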
Take `Cc1ccc2onc(CC(=O)Nc3cc(F)ccc3F)c2c1`: the “activity change, negative = inhibition” value was inactive: -6.98%.

On to `CCc1ccccc1N(C)C(=O)Nc1cn(CC(C)C)c(=O)c2ccccc12`, for which the “activity change, negative = inhibition” value is inactive: 6.09%. `CCn1cc(C(=O)OCC(=O)Nc2cccc(Cl)c2C)c(=O)c2ccc(C)nc21`: the compound was classed as inactive. Consider `CCC1CCCCN1S(=O)(=O)c1ccc2c(c1)CCCN2C(C)=O` (stereo not drawn), for which the “activity change, negative = inhibition” value is inactive: 3.03%.

With `C=Cc1ccc(CSc2nc(-c3ccccc3C)nc3c2Cc2c(CO)cnc(C)c2O3)cc1`, the “activity change, negative = inhibition” value was inactive: -12.6%. Still for that read-out and setting: to `COCCNC(=O)CN1C(=O)COc2ccc(S(=O)(=O)N3CCOCC3)cc21` belongs inactive: 51.7%. On to `COC(=O)c1scc(-c2ccc(C)cc2)c1S(=O)(=O)Nc1ccc(OC(F)(F)F)cc1`, for which the compound was classed as inactive. With `Cc1cc(N2CCN(C)CC2)nc2ccc(NC(=O)Nc3ccc(Cl)cc3)cc12`, the “activity change, negative = inhibition” value was inactive: 3.66%. In the case of `N#Cc1ccc(NC(=O)COCc2cc(-c3ccc4c(c3)OCO4)on2)cc1`, the outcome was inactive. As to `CCOc1ccc(N2CC(NC(=O)c3ccc(S(=O)(=O)N4CCOCC4)cc3)CC2=O)cc1` (stereo not drawn), the “activity change, negative = inhibition” value was inactive: 3.39%. In the case of `O=C(CSc1nc(=O)n(Cc2ccco2)c2c1CCC2)NCc1ccccc1Cl`, the “activity change, negative = inhibition” value is inactive: -14.4%. `CCOc1ccc(CNC(=O)CCn2c(=O)c3cccn3c3cccnc32)cc1`: the “activity change, negative = inhibition” value is inactive: 4.4%.

For the compound `Cc1nn(-c2ccc(F)cc2)c(-n2cccc2)c1C(=O)N1CCCCC1C` (stereo not drawn), the “activity change, negative = inhibition” value is inactive: 6.84%.

As to `O=C(CSc1nnc(CNC(=O)c2ccccc2)n1-c1ccc(F)cc1)Nc1ccccc1F`, the “activity change, negative = inhibition” value was inactive: 5.68%.

For the compound `O=C(CC1NCCNC1=O)Nc1ccc(F)c(Cl)c1` (stereo not drawn), the call was inactive. Same read-out and setting: the same measure for `Cc1cc(=O)n2nc(N3CCC(C(=O)NCCCOC(C)C)CC3)sc2n1`: “inactive”. In the case of `COc1ccccc1N1CCN(S(=O)(=O)c2ccc3c(c2)CCCN3C(C)=O)CC1`, the “activity change, negative = inhibition” value was inactive: 1.93%. Turning to `CCC(C(=O)Nc1cc(-c2cn3cccnc3n2)ccc1C)c1ccccc1` (stereo not drawn), the outcome was inactive. As to `CCOCCCn1c(SCC(=O)Nc2ccc(F)cc2)nc2c(sc3ccccc32)c1=O`, the “activity change, negative = inhibition” value was inactive: 1.01%. With `COc1ccc(Nc2ncc(C(=O)Nc3ccc(F)cc3F)c3ccccc23)cc1`, the result was inactive. Consider `CCCCOc1ccc(C(=O)Nc2sc3c(c2C(=O)OCC)CCCCC3)cc1`, for which the “activity change, negative = inhibition” value is inactive: -8.25%. Same read-out and setting: the same measure for `Cc1ccccc1CNC(=O)CN1CCSc2ccccc21`: inactive: 18.3%; for `Nc1nc2nc(-c3ccccc3)cc(=O)n2[nH]1`: inactive: -1.57%. As to `O=C(c1ccc2c(c1)N(Cc1ccccc1Cl)C(=O)c1ccccc1S2)N1CCCC1`, the compound was classed as inactive. Consider `CCc1cccc(NC(=O)Cn2c(-c3ccc(F)cc3)cc(C(C)=O)c2C)c1`, for which the compound was called inactive. On the same count and under the same terms, to `CCc1ccccc1-n1c(SCC(=O)Nc2ccc(C)cc2)nc2n[nH]c(C)c2c1=N` belongs “inactive”; to `CCCCNS(=O)(=O)c1ccc(NC(=O)c2c(-c3ccccc3)noc2C)cc1`, “inactive”; to `O=C(CSc1nc2ccccc2nc1Cc1ccc(Cl)cc1)N1CCCCC1`, “inactive”.

For `Cc1cccc(NS(=O)(=O)c2ccc3c(c2)n(C)c(=O)n3C)c1C`, the “activity change, negative = inhibition” value is inactive: -7.51%. `Fc1ccc(CNc2nc(-c3ccc(Cl)cc3)cc(C(F)(F)F)n2)cc1`: the result was inactive.

Consider `COc1ccc(NC(=O)CN2CCCN(Cc3ccccc3)S2(=O)=O)cc1`, for which the “activity change, negative = inhibition” value was inactive: 0.0584%.

On to `Cc1ccc(NC(=O)C2CCN(S(=O)(=O)c3ccc4c(c3)CCCC(=O)N4)CC2)c(Br)c1`, for which the “activity change, negative = inhibition” value is inactive: 1.11%. The same measure, in the same setting: the same measure for `COc1ccccc1N1CCN(c2ncc3c(n2)CCN(Cc2ccc(C)s2)C3)CC1`: inactive: 5.28%; for `CC[N+](CC)(CC)CCOc1cccc(OCC[N+](CC)(CC)CC)c1OCC[N+](CC)(CC)CC`: inactive: 21.5%.

Take `O=c1oc2ccccc2cc1-c1nc(-c2cccc(Cl)c2)cs1`: the “activity change, negative = inhibition” value was inactive: 2.94%. `COc1ccc(Cl)cc1NC(=O)CSc1nc(-c2cccs2)cc(C(F)(F)F)n1`: the call was inactive. Same read-out and setting: to `Cc1cccn2c(=O)cc(CSc3nnc(NC(=O)C(C)C)s3)nc12` belongs “inactive”. Still for that read-out and setting: to `COc1ccc(Cl)cc1NC(=O)CSc1cc(C)[nH]c(=O)n1` belongs “inactive”. As for `CN(C)CCNC(=O)c1ccc2nc(Cc3ccccc3)oc2c1`, the “activity change, negative = inhibition” value is inactive: -1.06%.

`CCN(CC)C(=O)Cn1cc(SCC(=O)Nc2cc(OC)ccc2OC)c2ccccc21`: the “activity change, negative = inhibition” value was inactive: 7.81%. With `Cc1ccc(Cl)cc1N1CCN(C(=O)c2sc3nc4n(c(=O)c3c2C)CCC4)CC1`, the result was inactive. Turning to `CCOC(=O)c1noc2ncn(Cc3ccc([N+](=O)[O-])cc3)c(=O)c12`, the “activity change, negative = inhibition” value was inactive: -16%. In the case of `Cc1ccc(CSc2nc3ccc(NC(=O)CC(C)C)cc3s2)cc1`, the result was inactive. Take `COc1ccc(C(=O)NCC(c2ccc(N(C)C)cc2)N2CCOCC2)cc1` (stereo not drawn): the “activity change, negative = inhibition” value was inactive: 7.42%. On the same count and under the same terms, the same measure for `CSc1ccc(CCNC(=O)c2c(C)nn(-c3ccc(F)cc3)c2-n2cccc2)cc1`: inactive: 5.68%; for `O=C(NCc1ccc(Cl)cc1)C1CCN(S(=O)(=O)c2ccc(F)cc2)CC1`: inactive: 0.72%; for `Cc1ccccc1C(=O)Nc1sc2c(c1C(=O)N1CCCCC1)CCC(C(C)(C)C)C2` (stereo not drawn): inactive: -8.41%. The same measure, in the same setting: the same measure for `CCC(CC)C(=O)Nc1ccc2nc(SCC(=O)N3CCOCC3)sc2c1`: inactive: -1.25%.
